Results taken from the supplement of paper PMC4604168 (melanoma cell lines).
The other results are listed elsewhere or left out. Single values are uncertain, as repeats are few or missing.

Tests used:
Experiment in all cases: cell count relative to DMSO control; melanoma cells; higher = more viable cells
Conditions in all cases: library dose: low library concentration; 72 h
[1] = system: WM115
[2] = system: WM1716
[3] = system: WM1745
[4] = system: WM3526
[5] = system: WM3619
[6] = system: WM451Lu
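Also: cell number obtained by counting DAPI-stained nuclei in high-throughput microscope images with image analysis software, screen run in 1,536-well plates.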

SMILES	cell count [1]	cell count [2]	cell count [3]	cell count [4]	cell count [5]	cell count [6]
Cn1c(Nc2ccc(C(F)(F)F)cc2)nc2cc(Oc3ccnc(-c4ncc(C(F)(F)F)[nH]4)c3)ccc21 + NC(=O)Nc1cc(-c2cccc(F)c2)sc1C(=O)N[C@H]1CCCNC1 [AZD7762] (first compound 0.08 µM, partner dose 0.02 µM)	31.5%	67.6%	88.3%	54.2%	80.9%	73.6%
OCc1c[nH]c2ccccc12 [Indole-3-carbinol] + COC(=O)c1sccc1S(=O)(=O)Nc1ccc(Nc2ccccc2)cc1OC [GSK0660] (first compound 0.8 µM, partner dose 1 µM)	107%	122%	110%	100%	103%	77.2%
OCc1c[nH]c2ccccc12 [Indole-3-carbinol] + Clc1ccc(Nc2nnc(Cc3ccncc3)c3ccccc23)cc1 [vatalanib] (first compound 0.8 µM, partner dose 2 µM)	90.2%	87.6%	99.3%	91.5%	113%	90.3%
Cn1c(Nc2ccc(C(F)(F)F)cc2)nc2cc(Oc3ccnc(-c4ncc(C(F)(F)F)[nH]4)c3)ccc21 + Cn1nnc2c(C(N)=O)ncn2c1=O [temozolomide] (first compound 0.08 µM, partner dose 2 µM)	45.5%	70.5%	70.2%	44.5%	59.8%	72.9%
OCc1c[nH]c2ccccc12 [Indole-3-carbinol] + CN(C)S(=O)(=O)c1ccc2c(c1)/C(=C/c1cc3c([nH]1)CCCC3)C(=O)N2 [SU6656] (first compound 0.8 µM, partner dose 0.4 µM)	75.2%	109%	79.5%	115%	123%	94.6%
Clc1ccc(Nc2nnc(Cc3ccncc3)c3ccccc23)cc1 [vatalanib] + O=S(=O)(c1ccccc1)N(CC(F)(F)F)c1ccc(C(O)(C(F)(F)F)C(F)(F)F)cc1 [T0901317] (first compound 2 µM, partner dose 1.4 µM)	88.6%	90.7%	74.7%	109%	104%	104%
Cn1c(Nc2ccc(C(F)(F)F)cc2)nc2cc(Oc3ccnc(-c4ncc(C(F)(F)F)[nH]4)c3)ccc21 + COCC[n+]1c2c(n(Cc3cnccn3)c1C)C(=O)c1ccccc1C2=O [YM155] (first compound 0.08 µM, partner dose 0.0004 µM)	52.7%	76.8%	68.9%	67.6%	59.9%	86.4%
OCc1c[nH]c2ccccc12 [Indole-3-carbinol] + COc1ccc2c(c1)CCC1C2CCC2(C)C(NCCCCCCN3C(=O)C=CC3=O)CCC12 [U73122] (first compound 0.8 µM, partner dose 0.4 µM)	100%	102%	106%	101%	108%	94.5%
Cn1c(Nc2ccc(C(F)(F)F)cc2)nc2cc(Oc3ccnc(-c4ncc(C(F)(F)F)[nH]4)c3)ccc21 + COc1ccc2c(c1)CCC1C2CCC2(C)C(NCCCCCCN3C(=O)C=CC3=O)CCC12 [U73122] (first compound 0.08 µM, partner dose 0.4 µM)	53.1%	50.7%	58.5%	44.5%	75.3%	110%
O=C(CCCCCCC(=O)Nc1ccccc1)NO [vorinostat] + O=C(Nc1cccc(Cl)c1)Nc1ncc(CCNc2ncnc3ccsc23)s1 [SNS314] (first compound 0.08 µM, partner dose 0.0008 µM)	72.5%	105%	74.8%	96.6%	102%	87.5%
Clc1ccc(Nc2nnc(Cc3ccncc3)c3ccccc23)cc1 [vatalanib] + O=c1cc(-c2cccc3c2Sc2ccccc2S3)oc(N2CCOCC2)c1 [KU55933] (first compound 2 µM, partner dose 1 µM)	106%	105%	84.8%	90%	91.4%	88.1%
COCC[n+]1c2c(n(Cc3cnccn3)c1C)C(=O)c1ccccc1C2=O + C=CCn1c(=O)c2cnc(Nc3ccc(N4CCN(C)CC4)cc3)nc2n1-c1cccc(C(C)(C)O)n1 [MK1775] (first compound 0.0004 µM, partner dose 0.02 µM)	82.6%	87.9%	110%	73.2%	80.8%	76.4%
Clc1ccc(Nc2nnc(Cc3ccncc3)c3ccccc23)cc1 [vatalanib] + COc1cc2ncnc(Nc3ccc(Oc4ccccc4)cc3)c2cc1OC [SrcI1] (first compound 2 µM, partner dose 2 µM)	103%	116%	77.8%	107%	141%	106%
Nc1cccc2c1CN(C1CCC(=O)NC1=O)C2=O (configuration not stated) [lenalidomide] + O=C(Nc1cccc(Cl)c1)Nc1ncc(CCNc2ncnc3ccsc23)s1 [SNS314] (first compound 1 µM, partner dose 0.0008 µM)	55.6%	99.1%	89%	81.6%	94.8%	93.4%
OCc1c[nH]c2ccccc12 [Indole-3-carbinol] + Cc1cc(N2CCOCC2)cc2[nH]c(-c3c(NC[C@@H](O)c4cccc(Cl)c4)cc[nH]c3=O)nc12 [BMS536924] (first compound 0.8 µM, partner dose 0.2 µM)	102%	120%	93.7%	75.4%	171%	98.8%
COCC[n+]1c2c(n(Cc3cnccn3)c1C)C(=O)c1ccccc1C2=O + COC(=O)c1sccc1S(=O)(=O)Nc1ccc(Nc2ccccc2)cc1OC [GSK0660] (first compound 0.0004 µM, partner dose 1 µM)	91.5%	86%	97.2%	95.2%	101%	53.6%
C#Cc1cccc(Nc2ncnc3cc(OCCOC)c(OCCOC)cc23)c1 [erlotinib] + Cc1nc(Nc2ncc(C(=O)Nc3c(C)cccc3Cl)s2)cc(N2CCN(CCO)CC2)n1 [dasatanib] (first compound 0.8 µM, partner dose 0.004 µM)	73.6%	87.1%	70.5%	97.1%	97.4%	91.3%
COCC[n+]1c2c(n(Cc3cnccn3)c1C)C(=O)c1ccccc1C2=O + CO[C@@H]1[C@H](N(C)C(=O)c2ccccc2)C[C@H]2O[C@]1(C)n1c3ccccc3c3c4c(c5c6ccccc6n2c5c31)C(=O)NC4 [Midostaurin] (first compound 0.0004 µM, partner dose 0.08 µM)	80.1%	72.9%	110%	80%	86.1%	49.9%
Cn1c(Nc2ccc(C(F)(F)F)cc2)nc2cc(Oc3ccnc(-c4ncc(C(F)(F)F)[nH]4)c3)ccc21 + COc1cc(Nc2ncc(F)c(Nc3ccc4c(n3)NC(=O)C(C)(C)O4)n2)cc(OC)c1OC [Tamatinib] (first compound 0.08 µM, partner dose 0.4 µM)	68.5%	105%	62%	73.7%	91.9%	137%
Nc1cccc2c1CN(C1CCC(=O)NC1=O)C2=O (configuration not stated) [lenalidomide] + CN(C)S(=O)(=O)c1ccc2c(c1)/C(=C/c1cc3c([nH]1)CCCC3)C(=O)N2 [SU6656] (first compound 1 µM, partner dose 0.4 µM)	64.2%	97.6%	83.4%	94.7%	96.8%	117%
Nc1cccc2c1CN(C1CCC(=O)NC1=O)C2=O (configuration not stated) [lenalidomide] + C[C@]1(c2nc3c(C(N)=O)cccc3[nH]2)CCCN1 [Veliparib] (first compound 1 µM, partner dose 1.4 µM)	85.3%	91.5%	89.6%	105%	98.9%	104%
Nc1cccc2c1CN(C1CCC(=O)NC1=O)C2=O (configuration not stated) [lenalidomide] + CCc1ccc(CCOc2ccc(CC3SC(=O)NC3=O)cc2)nc1 [pioglitazone] (first compound 1 µM, partner dose 2 µM)	99.4%	96.8%	90.9%	87.4%	93.7%	83.9%
COCC[n+]1c2c(n(Cc3cnccn3)c1C)C(=O)c1ccccc1C2=O + O=C(Nc1ccccc1)c1cc([N+](=O)[O-])ccc1Cl [GW9662] (first compound 0.0004 µM, partner dose 2 µM)	91.5%	93.8%	102%	105%	132%	95.3%
COCC[n+]1c2c(n(Cc3cnccn3)c1C)C(=O)c1ccccc1C2=O + Cc1cc(N2CCOCC2)cc2[nH]c(-c3c(NC[C@@H](O)c4cccc(Cl)c4)cc[nH]c3=O)nc12 [BMS536924] (first compound 0.0004 µM, partner dose 0.2 µM)	97.7%	88.3%	75.4%	79.6%	98%	58.7%
OCc1c[nH]c2ccccc12 [Indole-3-carbinol] + CCN(CC)CCCCNc1ncc2cc(-c3cc(OC)cc(OC)c3)c(NC(=O)NC(C)(C)C)nc2n1 [PD173074] (first compound 0.8 µM, partner dose 0.1 µM)	105%	114%	95.8%	93.3%	109%	94.8%
Nc1cccc2c1CN(C1CCC(=O)NC1=O)C2=O (configuration not stated) [lenalidomide] + COC(=O)c1sccc1S(=O)(=O)Nc1ccc(Nc2ccccc2)cc1OC [GSK0660] (first compound 1 µM, partner dose 1 µM)	105%	98.3%	105%	114%	156%	106%
C#Cc1cccc(Nc2ncnc3cc(OCCOC)c(OCCOC)cc23)c1 [erlotinib] + Cn1cncc1[C@@](N)(c1ccc(Cl)cc1)c1ccc2c(c1)c(-c1cccc(Cl)c1)cc(=O)n2C [tipifarnib] (first compound 0.8 µM, partner dose 0.01 µM)	80.2%	79.6%	82.1%	86.6%	75.8%	89.7%
